Data: PubChem BioAssay AID463173 (ICCB-Longwood Screening Facility, Harvard Medical School, 2010)
About 1,700 (3.3%) of roughly 52,000 compounds were called active. Rule as the data show it: active = survival mostly below about 52% (no sharp cut-off); inactive = mostly above about 56%. The list shows a part of the results.

The compounds below were run on Wild type (assay: S. aureus survival, RN4220 and DeltatarO strains – OD600, teichoic acid synthesis inhibitors, primary screen (AID 463173)). Conditions: S. aureus RN4220 wild type/DeltatarO growth, OD600, 18 h, stronger effect = lower value, screened at 18.75 µg/mL (by protocol).
In the case of `CCOc1ccc(C(=O)N2CCc3cc(OC)c(OC)cc3C2COc2ccc3c(C)cc(=O)oc3c2)cc1OCC` (stereo not given), the survival was inactive: 69%.
For `O=C(CSc1nc2ccccc2n1CC(=O)N1CCCC1)Nc1ccccc1`, the survival was inactive: 109%.
`CCCOc1ccc(OC(=O)c2ccc(-c3ccc(CCC)cn3)cc2)cc1` was tested, and the survival was inactive: 77%.
With `O=S(=O)(NCCc1csc(-c2cccc(F)c2)n1)c1cc(F)ccc1F` the survival was inactive: 83%.
For `Cc1ccccc1Cn1c(SCc2ccc(C(=O)N3CCCCC3)cc2)nc2ccncc21`, the survival was inactive: 90%.
For `CCn1c(C(=O)Nc2ccccc2C(=O)OC)cc2sc(Cl)cc21`, the survival was inactive: 43%.
`COC(=O)c1c(NC(=O)CCCOc2ccc(C)cc2)sc2c1CCCC2` was tested, and the survival was active: 3%.
For `COc1cc(NC(=O)CCNC(=O)Cn2ccc3ccccc3c2=O)cc(OC)c1OC`, the survival was inactive: 69%.
In the case of `COc1ccc(CCNC(=O)c2cc(Nc3ccccc3)nc3ccccc23)cc1OC`, the survival was inactive: 152%.
`O=C1CCc2cc(S(=O)(=O)NCc3ccccc3)cc3c2N1CC3` was tested, and the survival was inactive: 72%.
`Cc1ccc(NC(=O)Cn2c(=O)n(Cc3ccc(F)cc3)c(=O)c3cccnc32)cc1C` was tested, and the survival was inactive: 82%.
With `O=C(Nc1ccc(S(=O)(=O)N(Cc2ccccc2)c2ccccc2)cc1)c1ccccc1F` the survival was inactive: 82%.
In the case of `CCCCSc1ncc(C(=O)OCC)c(N)n1`, the survival was inactive: 100%.
In the case of `Cc1nc2c(c(C)nn2-c2ccccc2)c(C)c1CCC(=O)Nc1ccccc1`, the survival was inactive: 87%.
`COC(=O)c1ccccc1NC(=O)CCCn1c(C)c2cnn(-c3ccccc3)c(=O)c2c1C` was tested, and the survival was inactive: 82%.
`CCCn1ccc2c(OCC(=O)Nc3ccccc3C(=O)OCC)cccc2c1=O` was tested, and the survival was inactive: 75%.
With `O=C(CCCCn1c(=O)c2ccccc2n(Cc2ccc(F)cc2Cl)c1=O)NCCc1ccc(Cl)cc1` the survival was inactive: 99%.
For `N=c1c(C(N)=O)cc2c(=O)n3ccccc3nc2n1Cc1ccccc1`, the survival was inactive: 99%.
In the case of `O=C(Nc1ccccc1C(=O)NCc1ccccc1)c1ccco1`, the survival was inactive: 112%.
`CCOc1ccc(CCNC(=O)C2Cc3ccccc3N2C(=O)CC)cc1` (stereo not given) was tested, and the survival was inactive: 84%.
For `CCOC(=O)c1ccc(Nc2c(-c3ccc(OC)cc3)nc3nc[nH]n23)cc1`, the survival was inactive: 79%.
For `COc1ccc(CNC(=O)CC(C)CC2=NS(=O)(=O)c3ccccc3N2)cc1` (stereo not given), the survival was inactive: 124%.
`Cc1ccccc1Cn1c(=O)n(Cc2ccco2)c(=O)c2sc3ccccc3c21` was tested, and the survival was inactive: 83%.
`CCOc1ccc(S(=O)(=O)Nc2ccc3c(c2)CCCN3C(=O)c2cccs2)cc1` was tested, and the survival was inactive: 71%.
For `COc1ccccc1CNC(=O)Cc1c(C)c2cc3c(C)coc3c(C)c2oc1=O`, the survival was inactive: 84%.
For `CCOC(=O)c1cc2c(=O)n3ccccc3nc2n(CCCOC)c1=NC(=O)c1c(-c2c(F)cccc2Cl)noc1C`, the survival was inactive: 70%.
In the case of `CCC(=O)N1CCc2cc(CNC(=O)Nc3cc(OC)c(OC)c(OC)c3)ccc21`, the survival was inactive: 127%.
In the case of `CCN(CC)C(=O)C1=C(C)Nc2nc3ccccc3n2C1c1ccccc1F` (stereo not given), the survival was inactive: 143%.
In the case of `CC1Cc2ccccc2N1C(=O)Cn1nc(-c2nccc3ccccc23)oc1=O` (stereo not given), the survival was inactive: 97%.
`COc1ccc(Cl)cc1NC(=O)Cn1c(=O)n(-c2ccc(C)cc2)c(=O)c2ccc(C(=O)NCc3ccccc3Cl)cc21` was tested, and the survival was inactive: 84%.
With `O=C(Cc1ccc(NC(=O)N2CCCCc3ccccc32)cc1)NCc1cccc(Br)c1` the survival was inactive: 77%.
For `CC(=O)Nc1ccc2c(c1)S(=O)(=O)c1cc(NC(C)=O)ccc1-2`, the survival was inactive: 104%.
With `Cc1cccc(N2CCN(C(=O)Cn3c(C)c4cnn(-c5ccccc5)c(=O)c4c3C)CC2)c1C` the survival was inactive: 89%.
With `Cc1nnc(SCc2cc(=O)c3cc(F)ccc3[nH]2)n1C` the survival was inactive: 70%.
In the case of `CCCCn1c(SCc2ccccc2C)nc2ccsc2c1=O`, the survival was inactive: 136%.
`COc1ccc(CNC(=O)C(=O)NCC(c2ccco2)S(=O)(=O)c2cccs2)cc1` (stereo not given) was tested, and the survival was inactive: 47%.
For `C=C(C)Cn1c(SCC(=O)c2ccc(Br)cc2)nc2sc3c(c2c1=O)CCCC3`, the survival was inactive: 76%.
With `CC1=C(C#N)C(NC(=O)c2ccccc2)(C(F)(F)F)C(=O)N1` (stereo not given) the survival was inactive: 85%.
`Cc1ccc(NC(=O)c2ccc3c(O)c(S(=O)(=O)c4ccc(Cl)cc4)c(=O)[nH]c3c2)cc1` was tested, and the survival was inactive: 119%.
With `CCOC(=O)C1CCCN(C(=O)Cn2ncc3c(C)n(Cc4ccc(Cl)cc4)c(C)c3c2=O)C1` (stereo not given) the survival was inactive: 87%.
`Cc1ccc(NS(=O)(=O)c2ccc3c(c2)CCN3C(=O)C2CC2)c(C)c1` was tested, and the survival was inactive: 63%.
For `Cc1ccc(S(=O)(=O)c2nc(-c3cccs3)oc2SCc2ccc(F)cc2)cc1`, the survival was inactive: 68%.
With `CC(C)c1ccccc1NC(=O)C(Cc1c[nH]c2ccccc12)NC(=O)OC(C)(C)C` (stereo not given) the survival was inactive: 116%.
`COCCn1c(CNC(=O)c2cccc(C)c2)nc2cccnc21` was tested, and the survival was inactive: 78%.
For `COCCNC(=O)C1CCN(Cc2cc3ccccc3n2Cc2ccc(C)cc2)CC1`, the survival was inactive: 73%.
For `COc1ccccc1NC(=O)C1=C(C)Nc2nc(SCc3ccccc3)nn2C1c1cccc(O)c1` (stereo not given), the survival was inactive: 69%.
`O=C(CSCc1ccccc1)Nc1nccs1` was tested, and the survival was inactive: 101%.
In the case of `COc1ccc(OC)c(NS(=O)(=O)c2ccc(-n3cccn3)cc2)c1`, the survival was inactive: 78%.
`O=C(COc1ccc(F)cc1)Nc1nnc(S(=O)(=O)N2CCCC2)s1` was tested, and the survival was inactive: 73%.
In the case of `COc1ccc(NC(=O)c2nnn(Cc3nc(-c4cc(OC)c(OC)c(OC)c4)oc3C)c2C)cc1Cl`, the survival was inactive: 155%.
In the case of `COCCCNC(=O)Cn1c(=O)n(-c2ccc(C)c(C)c2)c(=O)c2c3c(sc21)CCCCC3`, the survival was inactive: 99%.
In the case of `CCCCNC(=O)C(CC)Sc1nc2ccccc2c(=O)n1Cc1ccco1` (stereo not given), the survival was inactive: 70%.
With `CCC(C)n1c(=O)c2sccc2n2c(CCCC(=O)NCc3ccccc3Cl)nnc12` (stereo not given) the survival was inactive: 102%.
In the case of `COc1cc(NC(=O)C2CCN(S(=O)(=O)Cc3ccccc3)CC2)c(OC)cc1Cl`, the survival was inactive: 84%.
For `COCCNC(=O)c1sc2ncccc2c1-n1c(C)ccc1C`, the survival was inactive: 88%.
`Cc1cc(C)n2nc(CNC(=O)c3c(F)cccc3F)nc2n1` was tested, and the survival was inactive: 77%.
With `Cc1cccc(N(C)S(=O)(=O)c2nnc(NC(=O)c3cccs3)s2)c1` the survival was inactive: 38%.
In the case of `Cc1ccc(C(=O)c2sc(Nc3ccccc3)c(S(=O)(=O)c3ccccc3)c2N)c(C)c1`, the survival was inactive: 127%.
`CCOC(=O)c1cccc(NC(=O)Cn2c(=O)c3cccn3c3ccccc32)c1` was tested, and the survival was inactive: 121%.
In the case of `CC(C)(C)OC(=O)N1CCC(c2c(C(=O)N3CCN(c4ccccn4)CC3)cnn2-c2ccc(F)cc2)CC1`, the survival was inactive: 72%.
`Cc1ccc(S(=O)(=O)NNC(=S)NCC2CCCO2)cc1` (stereo not given) was tested, and the survival was inactive: 100%.
`COc1ccc2c(c1)c(=O)c(S(=O)(=O)c1ccc(F)cc1)cn2Cc1ccccc1Cl` was tested, and the survival was inactive: 81%.
`Cc1ccc(-c2cn3cccnc3n2)cc1NC(=O)Nc1ccc(F)cc1` was tested, and the survival was inactive: 152%.
In the case of `O=C(c1ccc2c(c1)OCO2)c1cn(Cc2ccc(Cl)cc2)c2ccc(F)cc2c1=O`, the survival was inactive: 70%.
With `COc1cccc2c(C)cc3nnc(SCC(=O)Nc4ccc(C)cc4)n3c12` the survival was inactive: 52%.
`COCCNC(=O)CN1C(=O)c2cccnc2Sc2ccccc21` was tested, and the survival was inactive: 119%.
For `O=C(Cn1ncc2c1-c1ccccc1OC2)N1CCN(c2ccccc2)CC1`, the survival was inactive: 68%.
For `Nn1c(Cc2ccccc2)nc2cc(Cl)ccc2c1=O`, the survival was inactive: 117%.
With `CC1CCC(NC(=O)c2ccc(CS(=O)(=O)c3ccc(Cl)cc3)o2)CC1` (stereo not given) the survival was inactive: 93%.
With `CCCCOc1ccc(C(=O)N2CCCCC2CCN2CCOCC2)cc1` (stereo not given) the survival was inactive: 84%.
For `CCN(CC)S(=O)(=O)c1ccc(C(=O)NCCSc2c(-c3ccc(F)cc3)[nH]c3ccccc23)cc1`, the survival was inactive: 77%.
For `CCC(=O)Nc1ccc2nc(SCCOc3ccc(C)cc3OC)sc2c1`, the survival was inactive: 84%.
With `Cc1cc(Cl)ccc1OCC(=O)N(Cc1sccc1C)C1CCS(=O)(=O)C1` (stereo not given) the survival was inactive: 85%.
For `CC(=O)c1ccc(NC(=O)CSc2nc(-c3ccc(C)cc3)nc3c2c(=O)n(C)c(=O)n3C)cc1`, the survival was inactive: 75%.
With `CCn1c(=O)cc(OCC(=O)N2CCN(c3ccc(C)cc3)C(C)C2)c2ccccc21` (stereo not given) the survival was inactive: 80%.
`CC(C)OCCCNC(=O)CN1C(=O)c2cccnc2Sc2ccccc21` was tested, and the survival was inactive: 64%.
In the case of `CCCOc1cccc(C(=O)N(Cc2sccc2C)C2CCS(=O)(=O)C2)c1` (stereo not given), the survival was inactive: 114%.
`COc1ccc(CNC(=O)c2cnc(N(C)C)nc2)cc1` was tested, and the survival was inactive: 102%.
For `CCOc1nc(Nc2ccccc2)nc(OCC)n1`, the survival was inactive: 111%.
`Cn1c(=O)n(Cc2ccccc2)c(=O)c2c1nc1n2CCN1c1ccccc1` was tested, and the survival was inactive: 91%.
In the case of `O=C(Cn1cc(SCc2c(F)cccc2Cl)c2ccccc21)N1CCCCC1`, the survival was inactive: 86%.
With `Cc1cccn2cc(-c3cccc(NC(=O)C(C)C)c3)nc12` the survival was inactive: 69%.
`CCN(CC)CCNC(=O)CN1N=C(c2ccc(OC)cc2)CCC1=O` was tested, and the survival was inactive: 86%.
For `CCN(CC)CCNC(=O)C(=O)NCC(c1ccc2c(c1)OCO2)N1CCOCC1` (stereo not given), the survival was inactive: 82%.
In the case of `CCCN1C(=O)c2[nH]nc(-c3ccccc3)c2C1c1cccc(O)c1` (stereo not given), the survival was inactive: 76%.
With `CCOc1ccc(-c2nnc(SCC(=O)NCc3ccccc3Cl)o2)cc1` the survival was inactive: 85%.
`O=C(CSc1cn(CC(=O)N2CCCCC2)c2ccccc12)NCc1ccccc1` was tested, and the survival was inactive: 97%.
`CCOc1ccc(CNC(=O)C2CCN(c3nnc(-n4c(C)ccc4C)s3)CC2)cc1` was tested, and the survival was inactive: 88%.
With `Cc1ccc(NC(=O)c2oc3ccccc3c2NC(=O)Cc2ccccc2)cc1` the survival was inactive: 77%.
`O=C(OCCCN1CCOCC1)c1ccc(O)cc1O` was tested, and the survival was inactive: 98%.
